According to PubChem BioAssay AID623998 (Broad Institute, 2012):
Records with an inconclusive call do not appear. Some entries of the source have several records that differ or are many. This list holds those alone. An entry can have further records. Values given together repeat one measurement in other runs, samples, wells, individuals or studies. Marks in square brackets tell the records apart. Letters count within one entry.

Molecular target: Glycogen synthase kinase-3 beta (Homo sapiens) (UniProt P49841)
Test: GSK3beta kinase inhibitors, SAR follow-up, biochemical, ADP-Glo luminescence, dry powder samples (AID 623998)
Conditions: GSK3beta ADP-Glo luminescence kinase assay, 60 min

UniProt P49841, sequence (P49841 whole entry, looked up): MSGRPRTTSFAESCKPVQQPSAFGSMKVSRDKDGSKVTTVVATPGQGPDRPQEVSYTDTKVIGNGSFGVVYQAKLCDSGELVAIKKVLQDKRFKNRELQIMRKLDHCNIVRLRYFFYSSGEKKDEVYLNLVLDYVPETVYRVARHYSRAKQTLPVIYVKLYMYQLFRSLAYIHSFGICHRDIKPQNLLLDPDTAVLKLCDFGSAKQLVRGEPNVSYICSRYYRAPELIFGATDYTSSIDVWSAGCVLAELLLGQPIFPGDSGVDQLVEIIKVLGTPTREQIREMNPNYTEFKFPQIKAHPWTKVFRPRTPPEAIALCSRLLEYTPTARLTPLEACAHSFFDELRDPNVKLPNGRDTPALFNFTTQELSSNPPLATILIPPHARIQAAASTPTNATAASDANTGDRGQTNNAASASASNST

Structure (SMILES): COc1ccccc1[C@@H]1C2=C(CC(C)(C)CC2=O)Nc2n[nH]c(C)c21
- AC50: 12.6 nM [sample A] and 7.37 µM [sample B]
